Assay results from patent publication US8648074B2, “Substituted octahydropyrrolo[1,2-a]pyrazine sulfonamides as calcium channel blockers” (AbbVie Inc., priority 2011, dated 2014).
pIC50: −log10 of the molar value.

Target: human Cav2.2 (Homo sapiens, UniProt Q00975)
Assay: In vitro assessment of calcium channel activity using FLIPR (Ca2+ influx in IMR32 cells)
Type: cell-based
Conditions: IMR32 cells endogenously expressing human Cav2.2; Calcium 4 dye, 60 minute pre-incubation, 2 μM nifedipine, depolarized with 80 mM KCl; average of at least two runs unless marked *

| Compound | pIC50 |
| --- | --- |
| O=S(=O)(c1cc(C(F)(F)F)ccc1C(F)(F)F)N1CCN2C[C@H](Oc3cnc(C4CC4)cn3)C[C@H]2C1 [Example 138, (7R,8aS)-2-{[2,5-bis(trifluoromethyl)phenyl]sulfonyl}-7-[(5-cyclopropylpyrazin-2-yl)oxy]octahydropyrrolo[1,2-a]pyrazine] | 6.00 |
| COc1ccc(S(=O)(=O)N2CCN3C[C@H](Oc4cnc(C5CC5)cn4)C[C@H]3C2)cc1C(F)(F)F [Example 106, (7R,8aS)-7-[(5-cyclopropylpyrazin-2-yl)oxy]-2-{[4-methoxy-3-(trifluoromethyl)phenyl]sulfonyl}octahydropyrrolo[1,2-a]pyrazine] | 5.97 |
| O=S(=O)(c1ccco1)N1CCN2C[C@H](Oc3cnc(C4CC4)cn3)C[C@H]2C1 [Example 33, (7R,8aS)-7-[(5-cyclopropylpyrazin-2-yl)oxy]-2-(2-furylsulfonyl)octahydropyrrolo[1,2-a]pyrazine] | 5.20 |
| O=C1C(Oc2cnc(C3CC3)cn2)CC2CN(S(=O)(=O)c3ccc(C(F)(F)F)cc3)CCN12 (stereo not shown) [Example 212, 7-[(5-cyclopropylpyrazin-2-yl)oxy]-2-{[4-(trifluoromethyl)phenyl]-sulfonyl}hexahydropyrrolo[1,2-a]pyrazin-6(2H)-one] | 4.97 |
| CC1(c2cnc(O[C@@H]3C[C@H]4CN(S(=O)(=O)c5cccc(C(F)(F)F)c5)CCN4C3)cn2)CC1 [Example 206, (7R,8aS)-7-{[5-(1-methylcyclopropyl)pyrazin-2-yl]oxy}-2-{[3-(trifluoromethyl)phenyl]sulfonyl}octahydropyrrolo[1,2-a]pyrazine] | 5.82 |
| O=C1CN(S(=O)(=O)c2ccc(C(F)(F)F)cc2)C[C@@H]2C[C@@H](Oc3cnc(C4CC4)cn3)CN12 [Example 221, (7R,8aS)-7-[(5-cyclopropylpyrazin-2-yl)oxy]-2-{[4-(trifluoromethyl)-phenyl]sulfonyl}hexahydropyrrolo[1,2-a]pyrazin-4(1H)-one] | < 4.52 |
| O=S(=O)(c1ccc(C(F)(F)F)cc1)N1CCN2C[C@H](Oc3cnc(C4CCC4)cn3)C[C@H]2C1 [Example 102, (7R,8aS)-7-[(5-cyclobutylpyrazin-2-yl)oxy]-2-{[4-(trifluoromethyl)phenyl]-sulfonyl}octahydropyrrolo[1,2-a]pyrazine] | 5.72 |
| O=S(=O)(c1cccc(N2CCCC2)n1)N1CCN2C[C@H](Oc3cnc(C4CC4)cn3)C[C@H]2C1 [Example 61, (7R,8aS)-7-[(5-cyclopropylpyrazin-2-yl)oxy]-2-{[6-(pyrrolidin-1-yl)pyridin-2-yl]sulfonyl}octahydropyrrolo[1,2-a]pyrazine] | 5.98 |
| O=S(=O)(c1cccc(C(F)(F)F)c1)N1CCN2C[C@H](Oc3cnc(C4CC4)cn3)C[C@H]2C1 [Example 21, (7R,8aS)-7-[(5-cyclopropylpyrazin-2-yl)oxy]-2-{[3-(trifluoromethyl)phenyl]-sulfonyl}octahydropyrrolo[1,2-a]pyrazine] | 6.31 |
| O=C(NCCCC(F)(F)F)[C@H]1C[C@H]2CN(S(=O)(=O)c3cccc(C(F)(F)F)c3)CCN2C1 [Example 40, (7S,8aS)—N-(4,4,4-trifluorobutyl)-2-{[3-(trifluoromethyl)phenyl]-sulfonyl}octahydropyrrolo[1,2-a]pyrazine-7-carboxamide] | 5.85 |
| Cc1nc2ccc(O[C@H]3C[C@H]4CN(S(=O)(=O)c5cccc(C(F)(F)F)c5)CCN4C3)cc2o1 [Example 78, 2-methyl-6-{[(7S,8aS)-2-{[3-(trifluoromethyl)phenyl]sulfonyl}octahydropyrrolo[1,2-a]pyrazin-7-yl]oxy}-1,3-benzoxazole] | 5.88 |
| CC(C)(C)c1cccc(S(=O)(=O)N2CCN3C[C@H](Oc4cnc(C5CC5)cn4)C[C@H]3C2)n1 [Example 58, (7R,8aS)-2-[(6-tert-butylpyridin-2-yl)sulfonyl]-7-[(5-cyclopropylpyrazin-2-yl)oxy]octahydropyrrolo[1,2-a]pyrazine] | 6.60 |
| O=S(=O)(c1ccc(Cl)c(Cl)c1)N1CCN2C[C@H](Oc3cnc(C4CC4)cn3)C[C@H]2C1 [Example 151, (7R,8aS)-7-[(5-cyclopropylpyrazin-2-yl)oxy]-2-[(3,4-dichlorophenyl)-sulfonyl]octahydropyrrolo[1,2-a]pyrazine] | 5.87 |
| O=C(NC(c1ccccc1)c1ccccc1)[C@H]1C[C@H]2CN(S(=O)(=O)c3cccc(C(F)(F)F)c3)CCN2C1 [Example 37, (7S,8aS)—N-(diphenylmethyl)-2-{[3-(trifluoromethyl)phenyl]-sulfonyl}-octahydropyrrolo[1,2-a]pyrazine-7-carboxamide] | 6.04 |
| CN1C(=O)Cc2cc(S(=O)(=O)N3CCN4C[C@H](Oc5cnc(C6CC6)cn5)C[C@H]4C3)ccc21 [Example 163, 5-{[(7R,8aS)-7-[(5-cyclopropylpyrazin-2-yl)oxy]hexahydropyrrolo[1,2-a]-pyrazin-2(1H)-yl]sulfonyl}-1-methyl-1,3-dihydro-2H-indol-2-one] | 4.78 |
| O=S(=O)(c1ccc(F)c(Cl)c1)N1CCN2C[C@H](Oc3cnc(C4CC4)cn3)C[C@H]2C1 [Example 161, (7R,8aS)-2-[(3-chloro-4-fluorophenyl)sulfonyl]-7-[(5-cyclopropylpyrazin-2-yl)oxy]octahydropyrrolo[1,2-a]pyrazine] | 5.77 |

| Compound | pIC50 |
| --- | --- |
| O=S(=O)(c1ccc(C(F)(F)F)cc1)N1CCN2C[C@H](Oc3ccnc(C4CC4)n3)C[C@H]2C1 [Example 167, (7R,8aS)-7-[(2-cyclopropylpyrimidin-4-yl)oxy]-2-{[4-(trifluoromethyl)-phenyl]sulfonyl}octahydropyrrolo[1,2-a]pyrazine] | 5.36 |
| O=S(=O)(c1cccc(Cl)c1F)N1CCN2C[C@H](Oc3cnc(C4CC4)cn3)C[C@H]2C1 [Example 120, (7R,8aS)-2-[(3-chloro-2-fluorophenyl)sulfonyl]-7-[(5-cyclopropylpyrazin-2-yl)oxy]octahydropyrrolo[1,2-a]pyrazine] | 6.14 |
| CC(C)(C)c1cccc(S(=O)(=O)N2CCN3C[C@H](Oc4cnc(C5CC5)cn4)C[C@H]3C2)c1 [Example 53, (7R,8aS)-2-[(3-tert-butylphenyl)sulfonyl]-7-[(5-cyclopropylpyrazin-2-yl)-oxy]octahydropyrrolo[1,2-a]pyrazine] | 6.74 |
| O=S(=O)(c1ccc(OC(F)(F)F)cc1)N1CCN2C[C@H](Oc3cnc(C4CC4)cn3)C[C@H]2C1 [Example 28, (7R,8aS)-7-[(5-cyclopropylpyrazin-2-yl)oxy]-2-{[4-(trifluoromethoxy)-phenyl]sulfonyl}octahydropyrrolo[1,2-a]pyrazine] | 5.94 |
| O=S(=O)(c1ccccc1F)N1CCN2C[C@H](Oc3cnc(C4CC4)cn3)C[C@H]2C1 [Example 31, (7R,8aS)-7-[(5-cyclopropylpyrazin-2-yl)oxy]-2-[(2-fluorophenyl)sulfonyl]-octahydropyrrolo[1,2-a]pyrazine] | 5.64 |
| O=C1C(Cc2cccc(F)c2)C[C@H]2CN(S(=O)(=O)c3ccc(C(F)(F)F)cc3)CCN12 (stereo partly drawn) [Example 213, (8aS)-7-(3-fluorobenzyl)-2-{[4-(trifluoromethyl)phenyl]-sulfonyl}-hexahydropyrrolo[1,2-a]pyrazin-6(2H)-one] | 5.91 |
| O=S(=O)(c1cc(C(F)(F)F)ccn1)N1CCN2C[C@H](Oc3cnc(C4CC4)cn3)C[C@H]2C1 [Example 63, (7R,8aS)-7-[(5-cyclopropylpyrazin-2-yl)oxy]-2-{[4-(trifluoromethyl)pyridin-2-yl]sulfonyl}octahydropyrrolo[1,2-a]pyrazine] | 5.86 |
| O=C(N[C@H]1C[C@H]2CN(S(=O)(=O)c3ccc(C(F)(F)F)cc3Cl)CCN2C1)c1ccc(Cl)cc1 [Example 7, 4-chloro-N-[(7S,8aS)-2-{[2-chloro-4-(trifluoromethyl)phenyl]sulfonyl}-octahydropyrrolo[1,2-a]pyrazin-7-yl]benzamide] | 5.76 |
| O=S(=O)(c1cccc(C(F)(F)F)c1)N1CCN2C[C@@H](Oc3ccc(OC(F)(F)F)cc3)C[C@H]2C1 [Example 41, (7S,8aS)-7-[4-(trifluoromethoxy)phenoxy]-2-{[3-(trifluoromethyl)phenyl]-sulfonyl}octahydropyrrolo[1,2-a]pyrazine] | 6.14 |
| O=S(=O)(c1cccc(C(F)(F)F)c1)N1CCN2C[C@H](Oc3nccc(C4CC4)n3)C[C@H]2C1 [Example 46, (7R,8aS)-7-[(4-cyclopropylpyrimidin-2-yl)oxy]-2-{[3-(trifluoromethyl)-phenyl]sulfonyl}octahydropyrrolo[1,2-a]pyrazine] | 5.91 |
| O=S(=O)(c1cccc(C(F)(F)F)c1)N1CCN2C[C@H](Oc3ccc(C4CC4)nc3)C[C@H]2C1 [Example 88, (7R,8aS)-7-[(6-cyclopropylpyridin-3-yl)oxy]-2-{[3-(trifluoromethyl)phenyl]-sulfonyl}octahydropyrrolo[1,2-a]pyrazine] | 5.96 |
| O=S(=O)(c1ccc(N2CCOCC2)nc1)N1CCN2C[C@H](Oc3cnc(C4CC4)cn3)C[C@H]2C1 [Example 70, (7R,8aS)-7-[(5-cyclopropylpyrazin-2-yl)oxy]-2-{[6-(morpholin-4-yl)pyridin-3-yl]sulfonyl}octahydropyrrolo[1,2-a]pyrazine] | 5.16 |
| CC(C)c1ccc(S(=O)(=O)N2CCN3C[C@H](Oc4cnc(C5CC5)cn4)C[C@H]3C2)cc1 [Example 104, (7R,8aS)-7-[(5-cyclopropylpyrazin-2-yl)oxy]-2-[(4-isopropylphenyl)-sulfonyl]octahydropyrrolo[1,2-a]pyrazine] | 5.78 |
| N#Cc1ccc(C(F)(F)F)cc1S(=O)(=O)N1CCN2C[C@H](Oc3cnc(C4CC4)cn3)C[C@H]2C1 [Example 201, 2-{[(7R,8aS)-7-[(5-cyclopropylpyrazin-2-yl)oxy]hexahydropyrrolo[1,2-a]-pyrazin-2(1H)-yl]sulfonyl}-4-(trifluoromethyl)benzonitrile] | 6.12 |
| O=S(=O)(c1cccc(Cl)c1)N1CCN2C[C@H](Oc3cnc(C4CC4)cn3)C[C@H]2C1 [Example 55, (7R,8aS)-2-[(3-chlorophenyl)sulfonyl]-7-[(5-cyclopropylpyrazin-2-yl)oxy]-octahydropyrrolo[1,2-a]pyrazine] | 5.94 |
